PubChem BioAssay AID1346428 (National Center for Advancing Translational Sciences (NCATS), 2018)
About 1,200 (2.5%) of roughly 48,000 compounds were called active. Another 2% or so got no clear call; they are omitted.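 Rule for the calls: active = activation of at least 60% and not above a set upper limit (about 1 call in 100 departs from these limits); inconclusive = activation of 40% to 60%, or above that upper limit; inactive = activation under 40%.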 This is one part of the list.

Each compound was assayed against Probable G-protein coupled receptor 32 (Homo sapiens) (UniProt O75388) (assay: qHTS for Agonists of Human Resolvin D1 Receptor DRV1). Details: CHO-K1 GPR32 beta-arrestin PathHunter luminescence, 90 min; at 76.9 µM; hits give high values; zero percent set by DMSO-only wells.
Sequence of UniProt O75388 (O75388 whole entry, looked up): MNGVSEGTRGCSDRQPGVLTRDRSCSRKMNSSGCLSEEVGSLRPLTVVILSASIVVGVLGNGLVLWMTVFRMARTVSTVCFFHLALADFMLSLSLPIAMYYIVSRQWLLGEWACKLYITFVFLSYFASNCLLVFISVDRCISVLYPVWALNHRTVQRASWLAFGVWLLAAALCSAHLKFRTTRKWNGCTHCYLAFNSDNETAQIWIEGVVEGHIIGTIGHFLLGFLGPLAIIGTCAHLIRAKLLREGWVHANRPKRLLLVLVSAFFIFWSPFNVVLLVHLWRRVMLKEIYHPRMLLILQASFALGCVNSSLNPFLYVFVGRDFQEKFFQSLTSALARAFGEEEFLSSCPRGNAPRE
Summary of the method: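 Cells are plated overnight, treated with compounds in DMSO for 90 minutes at 37 °C, and developed with PathHunter detection reagent for 1 hour before luminescence is read; signal reflects beta-arrestin binding to GPR32 in engineered CHO-K1 cells.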
Note: 0% is about no effect.

activation, inactive:
COc1cccc(N2CCN(C(=O)CCc3c(C)nc4c(c3C)c(=O)n(C)c(=O)n4C)CC2)c1 1.58%
CCC(C)NC(=O)c1ccc2c(c1)N(Cc1ccccc1)C(=O)c1ccccc1S2 (stereo not drawn) -8.51%
CCN(CC)c1cc2c(cc1F)c(=O)c(S(=O)(=O)c1ccc(OC)cc1)cn2CC 2.88%
CCOc1ccc(CNC(=O)C2CCCN(S(=O)(=O)c3ccc4c(ccn4C)c3)C2)cc1 (stereo not drawn) -2.88%
COc1ccc(-c2c3c(=O)n(C)c(=O)n(C)c3c3c(C)nc4ccccc4n23)cc1 -30.1%
CC(C)(C)c1ccc(-c2nc(SCCCOc3ccccc3)n3[nH]c(=O)cc3n2)cc1 -19.6%
COc1ccc(-c2nc(CN3CCC(C(=O)NCc4ccccc4)CC3)c(C)o2)cc1OC -4.61%
Cn1nnc2c(N3CCN(c4ccccc4Cl)CC3)ncnc21 -16%
CCOC(=O)c1ccccc1NC(=O)N(C(C)C)C1CCN(C(C)=O)CC1 -10.6%
CCOC(=O)Cn1c(=O)n(-c2ccccc2OC)c2nc(-c3cccc(F)c3)nc(C(N)=O)c21 -15.7%
Cc1ccc(-c2nnc(SCc3cccc(C#N)c3)o2)cc1 2.9%
CCOC(=O)c1cccnc1SCC(=O)Nc1ccc(C)cc1C -24%
CN(C)CCNC(=O)c1ccc2c(=O)n3c(nc2c1)CCCCC3 -5.31%
O=C(NCCc1ccccc1)c1nnc(Cc2cccc(F)c2)o1 -1.11%
COc1ccc(-c2nc(C)c(CCNS(=O)(=O)c3cc(C)c(C)cc3C)s2)cc1 -0.585%
Cc1ccc2c(c1)-c1c(cnc3cc(-c4ccccc4)nn13)CO2 -13.2%
CCCCc1ccc(NC(=O)c2ccc(=O)n(Cc3cccc(C)c3)c2)cc1 19%
Cc1cccc(N2CCN(C(=O)c3cccc(-n4c(C)nc5cccnc54)c3)CC2)c1C 4.78%
CCn1c(=O)[nH]c2cc(Cl)c(Cl)cc21 12%
CCOc1ccccc1CNC(=O)C1CCN(c2nn3cc(-c4ccc(F)cc4)nc3s2)CC1 -0.729%
CCCCCCOc1ccc(C2C(=O)N(C3CCCCC3)CC(=O)N2CCC)cc1 (stereo not drawn) -23.6%
N#C/C(=C\c1ccc(Cl)cc1Cl)c1nc(-c2cccc(Cl)c2)cs1 5.28%
CCOc1ccccc1N(CC(=O)NCCSc1ccccc1)S(=O)(=O)c1ccccc1 10.5%
CC(C)c1ccc(CN(Cc2ccco2)c2cnc(S(C)(=O)=O)nc2C(=O)Nc2ccc(F)cc2)cc1 -4.68%
Cc1ccc(C(=O)Nc2cc3nn(-c4ccccc4)nc3cc2Cl)c(C)c1 -9.86%
Cc1cccc(N2CCN(C(=O)Nc3cn(CC(C)C)c(=O)c4ccccc34)CC2)c1C -7.62%
Cc1nnc(N2CCC(C(=O)NCCc3ccccc3Cl)CC2)c2nn(-c3ccccc3)c(C)c12 -9.76%
COc1ccccc1Cc1nc2ccccc2nc1SCC(=O)N(C)c1ccc(F)cc1 -14.5%
CCc1nn(CC(=O)NCCCN(CC(C)C)CC(C)C)c(=O)c2cc3sc(C)cc3n12 -7.17%
COc1ccccc1N1CCN(C(=O)Cn2cnc3onc(-c4ccc(F)cc4)c3c2=O)CC1 19%
CCCCN(C)C(=O)C1CCCN(c2ncnc3onc(C)c23)C1 (stereo not drawn) 40.3%
CCOc1ccc(C(=O)Nc2cccc(-c3nc4cc(Cl)cc(Cl)c4o3)c2)cc1 -2.67%
COc1ccc(Cn2c(=O)c3oc4ccccc4c3n(Cc3cccc(C(F)(F)F)c3)c2=O)cc1 -27.3%
Cc1nn(-c2ccccc2)c2c1N(CC(=O)N1CCN(c3cccc(Cl)c3)CC1)C(=O)CS2 -14.9%
O=C(c1ccc2c(=O)n(CCc3ccccc3)c(=O)[nH]c2c1)N1CCN(c2ccc(F)cc2)CC1 12%
COc1cccc(N2CC(NC(=O)c3ccco3)CC2=O)c1 (stereo not drawn) -4.76%
CC(=O)c1cccc(NC(=O)c2cc(-c3ccc(Cl)s3)nc3ccccc23)c1 0.541%
COc1ccc(NC(=O)CC2C(=O)N(c3cccc(C)c3)C(=O)N2C2CCCCC2)cc1 (stereo not drawn) 8.23%
OCC1NCC(O)C(O)C1O (stereo not drawn) 6.12%
COc1ccc(-c2nnc(SCC(=O)Nc3ccc(C(C)C)cc3)nc2-c2ccc(OC)c(OC)c2)cc1OC -19.3%
CC(C)c1ccc(S(=O)(=O)c2nnn3c2nc(N2CCCCC2)c2sccc23)cc1 -12.7%
CCC(C)(Oc1ccc(C2(c3ccc(OC(C)(CC)C(=O)O)cc3)CCCCC2)cc1)C(=O)O (stereo not drawn) 5.35%
Cc1ccc(C)c(Cn2c(-c3cccs3)nc3ccccc32)c1 -27.7%
Cc1ccc(C)c(CN2C(=O)N(c3cc(Cl)ccc3C)S(=O)(=O)c3ccccc32)c1 33.9%
CC(C)Cc1ccc(S(=O)(=O)Nc2cc3c(cc2N2CCOCC2)n(C)c(=O)c(=O)n3C)cc1 20.8%
CCOc1ccccc1CNS(=O)(=O)c1ccc2[nH]c(=O)ccc2c1 32.4%
COc1cccc(C(=O)Nc2ccc(-c3cc(C(F)(F)F)nn3-c3ccccc3)cc2)c1 -9.6%
COc1ccc(NC(=O)CSc2nnc(NC(=O)Nc3ccc(OC)cc3)s2)cc1 -2.52%
CCN(CCCNC(=O)CN1N=C(c2ccc(OC)cc2)CCC1=O)c1cccc(C)c1 -15.5%
CCC(C(=O)Nc1c(C)cc(C)cc1C)n1c(=O)c(-c2ccccc2NC(C)=O)nc2ccccc21 (stereo not drawn) -0.494%
CN(Cc1ccccc1)S(=O)(=O)c1cc(Br)cc2c1N(C(=O)C1CC1)CC2 5.2%
CCOC(=O)C1CCCN(C(=O)c2cc3c(=O)[nH]c4ccc(C)cc4c3s2)C1 (stereo not drawn) 28.6%
COc1cccc(Nc2sc(C(=O)c3ccc(F)cc3)c(N)c2C(=O)NCc2ccc(Cl)cc2)c1 4.25%
CCOc1ccc(CCNC(=O)CCCn2nc(C)c3sc4ccccc4c3c2=O)cc1 -17.6%
CCCCN(C)CCCNC(=O)c1cc(-c2ccc(Br)s2)nc2ccccc12 7.67%
COc1ccc(-c2ccc(NS(=O)(=O)c3ccc(C(C)=O)cc3)cc2)nn1 -21%
Cc1ccc(NS(=O)(=O)c2c(C)[nH]c(=O)[nH]c2=O)c(C)c1 4.76%
COc1cccc(N2CC(NC(=O)CCCc3ccccc3)CC2=O)c1 (stereo not drawn) -2.79%
Cc1ccc(-c2noc(CNC(=O)c3ccc(Br)o3)n2)cc1 -10.7%
CSc1ccc(CCNC(=O)c2cnc3c(C)cccn3c2=O)cc1 -7.52%
CCc1nnc(NC(=O)CSc2nccn2-c2ccc(OC)cc2)s1 -21.6%
CCn1c(C)c(C2N3CC4(C)CN2CC(C)(C3)C4=O)c2ccccc21 (stereo not drawn) -2.91%
Cc1nc(C)c(-c2ccc(SCC(=O)Nc3ccc(Br)cc3)nn2)s1 15%
CC(=O)c1cccc(-n2c(=O)c3c4c(sc3n(CC(=O)c3ccccc3)c2=O)CN(C(C)=O)CC4)c1 -0.151%
CC(=O)c1cc2c(cc1N/C(=N/S(=O)(=O)c1ccc(Cl)cc1)c1ccc(F)cc1)OCO2 -6.52%
Cc1ccc(C)c(CN2C(=O)c3ccccc3S(=O)(=O)c3ccc(C(=O)N(C)C4CCCCC4)cc32)c1 -25.7%
Cc1nn(-c2ccccc2)c(OC(=O)C(C)C)c1Sc1ccc(Cl)cc1 14.6%
Cc1ccc(CNC(=O)CCCCCn2c(=O)[nH]c3ccccc3c2=O)cc1 -6.59%
Cc1ccc(/C=C/c2onc(C)c2S(=O)(=O)N2CCC(C(=O)Nc3ccc(C)c(N(C)C)c3)CC2)cc1 -16.1%
COc1cc(C(=O)Oc2c(Sc3ccccc3)c(C)nn2-c2ccccc2)cc(OC)c1OC 12.1%
CCc1ccccc1NC(=O)Nc1c[nH]c(=O)[nH]c1=O -7.22%
Cc1ccc(C)c(N2CCN(C(=O)c3ccc(NC(=O)c4nsc5ccccc45)cc3)CC2)c1 -17.9%
CC1CCCN(CCCNC(=O)c2ccc3c(c2)N(Cc2ccccc2F)C(=O)c2ccccc2S3(=O)=O)C1 (stereo not drawn) -4.66%
Cc1ccccc1-c1nc(CN2CCC(C(=O)NCc3ccccc3Cl)CC2)c(C)o1 3.3%
CCOc1ccc(N2CC(NC(=O)CCc3ccccc3)CC2=O)cc1 (stereo not drawn) -0.0653%
CC(C)(C)c1ccc(NC(=O)C2CCCN(c3cnccn3)C2)cc1 (stereo not drawn) 1.28%
Cc1ccc2c(c1)c1c(c(=O)n(-c3cccc(Cl)c3)c(=O)n1CC(=O)Nc1c(C)cccc1C)n2C -2.68%
CCOC(=O)c1ccccc1NC(=O)CSc1nc2cn(CC)nc2c(=O)n1Cc1ccc(Cl)cc1 -8%
O=C(CC1N=C2c3ccccc3N=C(SCc3ccc(Cl)cc3)N2C1=O)NCc1cccs1 (stereo not drawn) -12.2%
COc1ccc(N2CCN(C(=O)C3CCN(S(=O)(=O)c4cccs4)CC3)CC2)cc1 26.3%
Cc1ccc(CN2CCSc3ccc(C(=O)N4CCN(c5ccccc5)CC4)cc32)cc1 -30.5%
O=c1c2cc3c(cc2n(Cc2ccc(Cl)cc2)c(=O)n1Cc1nc(-c2ccccc2)no1)OCO3 -0.0942%
Cc1ccc(-n2c(Cc3ccccc3)nnc2SCc2nc(-c3cccs3)no2)cc1 -40.1%
